From paper PMC4336329 (PLoS ONE, 2015)
Hit rate of the full screen: of about 310,000 compounds, about 2,200 (0.71%) showed an effect of 50% or more. Effects have a minus sign here. The list shows a part of the results.

biological target: human ether-à-go-go-related gene (hERG) potassium channel (human, UniProt Q12809); assay: primary screen, population patch clamp on CHO cells stably expressing hERG
Sequence (Q12809 whole entry, looked up): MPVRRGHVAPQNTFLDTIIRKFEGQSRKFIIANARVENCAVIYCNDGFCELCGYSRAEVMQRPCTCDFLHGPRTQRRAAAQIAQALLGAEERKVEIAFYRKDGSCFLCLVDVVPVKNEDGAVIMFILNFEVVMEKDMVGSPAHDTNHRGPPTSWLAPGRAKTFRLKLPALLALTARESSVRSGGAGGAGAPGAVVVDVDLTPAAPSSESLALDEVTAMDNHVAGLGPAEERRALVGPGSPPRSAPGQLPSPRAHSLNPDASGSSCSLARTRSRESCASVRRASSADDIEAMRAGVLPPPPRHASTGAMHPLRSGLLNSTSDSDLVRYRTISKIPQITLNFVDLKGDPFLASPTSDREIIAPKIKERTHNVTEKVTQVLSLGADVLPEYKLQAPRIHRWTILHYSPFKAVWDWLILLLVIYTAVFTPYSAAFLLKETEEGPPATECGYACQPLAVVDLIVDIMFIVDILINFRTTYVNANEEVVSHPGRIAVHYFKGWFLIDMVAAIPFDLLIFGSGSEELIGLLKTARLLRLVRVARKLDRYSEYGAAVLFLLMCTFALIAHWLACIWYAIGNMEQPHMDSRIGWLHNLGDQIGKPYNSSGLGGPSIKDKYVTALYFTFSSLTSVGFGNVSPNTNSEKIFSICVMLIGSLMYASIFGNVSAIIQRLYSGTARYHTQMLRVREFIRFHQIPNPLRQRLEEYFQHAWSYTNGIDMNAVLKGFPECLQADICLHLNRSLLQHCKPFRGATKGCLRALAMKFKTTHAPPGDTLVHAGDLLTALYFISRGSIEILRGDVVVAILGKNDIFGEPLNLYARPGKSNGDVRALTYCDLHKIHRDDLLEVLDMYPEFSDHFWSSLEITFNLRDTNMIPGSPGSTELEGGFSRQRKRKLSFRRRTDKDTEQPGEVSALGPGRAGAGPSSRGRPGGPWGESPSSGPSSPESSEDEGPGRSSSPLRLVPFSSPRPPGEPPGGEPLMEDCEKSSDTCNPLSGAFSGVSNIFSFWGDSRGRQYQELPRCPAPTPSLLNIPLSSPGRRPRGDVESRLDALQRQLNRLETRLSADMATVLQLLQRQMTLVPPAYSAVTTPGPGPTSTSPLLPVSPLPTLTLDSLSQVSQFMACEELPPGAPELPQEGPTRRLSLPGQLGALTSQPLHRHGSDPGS

Compound | hERG current change (%, negative = inhibition) at 1uM
CCCCC1OC2(C)OC(=N)C1(C#N)C(C#N)(C#N)C2c1ccccc1 (stereo not shown) | 0.781%
COc1cc(NC(=O)c2cccs2)c(C(=O)OCC(=O)NCc2ccccc2)cc1OC | 11.9%
CC1SC2(CN3CCC2CC3)NC1=O (stereo not shown) | 12.8%
CN(Cc1ccc(Cl)c(Cl)c1)C(=O)CN1C(=O)NC2(CCCC2)C1=O | 12%
Cc1nc(-c2coc3c(CN(C)C)c(O)ccc3c2=O)cs1 | 13.9%
COc1ccc(CC(=O)Nc2ncc([N+](=O)[O-])s2)cc1OC | 18.8%
CCN1CCN(C(=O)C2=CC(c3ccc(C)cc3)=NS(=O)(=O)N2C)CC1 | 8.22%
COc1ccc(CCNC(=O)C2CCN(S(C)(=O)=O)CC2)cc1OC | 14.4%
COc1cccc(C=Nc2cccc3c(=O)[nH][nH]c(=O)c23)c1O | 2.18%
CNC(=S)N/N=C(\C)c1ccc2c(c1)OCO2 | 15.1%
CCOC(=O)C1CCCN(S(=O)(=O)c2ccc(OC)c3ccccc23)C1 (stereo not shown) | 2.96%
CN1CCN(NS(=O)(=O)c2cccs2)CC1 | 7.32%
Cc1ccccc1-n1nnnc1SC(C)C(=O)Nc1ccc(N2CCN(C)CC2)cc1 (stereo not shown) | 3.69%
CCOc1ccccc1CNS(=O)(=O)c1ccc(-c2cnc(C3CC3)o2)cc1 | -7.07%
Cc1ccc(C)c(NC(=S)N2CCCCCC2)c1 | 10.6%
CC(=O)Nc1cccc(C(=O)NNC(=O)c2ccccc2-n2cccc2)c1 | 10.6%
COc1ccc(-c2nnc3sc(-c4ccccn4)nn23)cc1 | 11.2%
NC(=NCCc1ccccc1)NS(=O)(=O)c1ccccc1 | 13.3%
Cc1cc(C#N)c(C)n1-c1cc(C(F)(F)F)ccc1N1CCOCC1 | 3.54%
COc1cc(C2(c3ccc(O)c(OC)c3)C(=O)N(C)c3ccc(C)cc32)ccc1O | 3.42%
COc1ccc(OC2C(=O)N(c3cc(C)ccc3C)C2c2ccc(OC)c(OC)c2)cc1 (stereo not shown) | 10.3%
Cc1ccc(-n2nc3c(=O)n(CC(=O)NCCc4ccc(Cl)cc4)nc(C)c3c2C)cc1 | 18.2%
Cc1cc(C)n(-c2nc3ccccc3c(=O)n2OCC(=O)N(C)C)n1 | 8.4%
COc1ccc(OC)c(NC(=O)CCC(=O)Oc2ccc(C)cc2)c1 | 12.6%
Cc1nnc(NC(=O)c2cccc(S(=O)(=O)N(C)c3cccc(Cl)c3)c2)s1 | 6.37%
